Data: patent US11696914B1 (priority 2019, dated 2023)

Details: pyronaridine 1 μM, 60 min incubation

## COc1ccc2nc3cc(Cl)ccc3c(N)c2n1 [M11]
  Relative Peak Area/Abundance GPLM: 0.7%
